According to the supplement of paper PMC3334620:
In all, about 33,000 sequences were measured (“E-score (-0.5 to 0.5)”: median about -0.04, highest 2% from about 0.36 on). The list shows a part of the results.

target: T1, Hmlalpha2 (UniProt P0CY09); assay: PBM E-score (8-mer binding enrichment) (E-score (-0.5 to 0.5)); higher = stronger / more preferred TF binding; most listed sequences are background and not binding sites; conditions: protein concentration: 200 nM; construct: GST-full length
T1 sequence: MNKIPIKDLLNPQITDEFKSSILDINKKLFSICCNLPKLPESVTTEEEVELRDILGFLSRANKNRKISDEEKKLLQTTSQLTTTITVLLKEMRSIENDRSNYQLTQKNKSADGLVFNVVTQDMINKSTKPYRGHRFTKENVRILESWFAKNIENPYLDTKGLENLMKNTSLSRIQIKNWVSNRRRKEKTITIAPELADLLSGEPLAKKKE
Procedure: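 Universal 'all 10-mer' protein binding microarrays (Agilent AMADID 015681) probed with GST-tagged S. cerevisiae TFs (full-length or DBD) made by in vitro transcription/translation (PURExpress), about 100-200 nM. Bound TF was detected with fluorescent anti-GST. Each ungapped 8-mer (which stands for itself and its reverse complement) is scored by the PBM enrichment score (E-score), a modified Wilcoxon-Mann-Whitney statistic from -0.5 to +0.5, computed with the Universal PBM Analysis Suite. Scale: above 0.35 generally sequence-specific binding.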

Sequence	PBM E-score
ATCGTTTG	0.0517
GACTACAC	0.362
ATCGCAGA	-0.00108
ACTAAGCG	-0.116
CACGGATC	0.0909
ACCTAAAT	0.00256
CTAACTTA	0.151
GCACCTGC	-0.236
ATAGTGTG	0.0162
GAACCAGC	-0.0938
GGTCAGGA	-0.271
CTTCCTAC	-0.169
GGATAGCA	-0.128
CTGTTAGA	0.0574
GGGTCTAC	-0.0437
CAGGCAAG	-0.112
CGCCGCCC	-0.329
CTGCAGCA	-0.00896
CTTCAGTA	-0.0693
TAAAACCA	0.189
GCATGCAA	0.133
ACGCGCTA	0.288

Sequence	PBM E-score
ATCTGCGC	-0.0447
CCAGGTCG	-0.0766
AAGGTAGG	-0.132
CGATCATA	0.0505
GAGGAAAA	-0.174
TGGTGAAA	-0.0269
GGACGCCC	-0.202
CAGGTCAA	-0.0762
AAACACTG	0.154
AACGGTCT	-0.111
AGTGATTG	-0.0798
ACGAGTGG	-0.245
CCGGTGGA	-0.259
ACGTCGTA	0.171
ATTCTAGA	-0.033
GCAAGACA	-0.111
CTGTCGAC	0.0636
GTTAATAA	0.318
CCACGGCG	-0.0275
TGGCCCAA	-0.196
CCACTCTC	-0.183
AGGCTCGA	-0.102

Sequence	PBM E-score
GGGCAGCA	-0.141
CCGACCAA	0.0583
AGCCCATC	-0.236
ACGACACT	0.0474
ACAGTCGC	-0.125
ACTATCTC	-0.177
CGTATGTC	0.131
AAGTTAAC	0.303
CAACTCTC	-0.121
CCAATCCC	-0.265
CACCATAC	-0.147
GTTGACGA	0.103
ATAAATTA	0.314
ACCAGTCA	-0.0542
CAGTGCAA	-0.0307
GTTTCTAA	0.146
TACACCCA	0.159
CAAATTTG	-0.0243
GTTTACTA	0.356
GGCGTTTA	0.118
ATGTTGAC	0.356
CAGGGGGA	-0.312

Sequence	PBM E-score
GAGTCTAC	-0.0298
CTATCAAC	0.212
GCTTCCCA	-0.268
TTAATGAA	0.221
CTATGCTA	0.201
AAAGCTTC	-0.0159
ATATCGAT	0.00945
GGACATCC	-0.25
CCTACACG	0.393
CCTTGCGC	-0.203
CCAAAGGG	-0.28
ACAGCAGA	0.103
ACACTGTC	0.12
ACGAAGAT	0.0929
GCGGAGCA	-0.306
AAGCACTC	-0.0974
ACATCTTA	0.106
ACTCGTCT	0.0315
AATTTCAC	0.0769
CGCATAGC	-0.0965
